Screen size: about 350,000 compounds; about 9,900 (2.8%) were called active. Inconclusive means that the source gave no clear call. Such entries were picked first, then a sample of the others. Calls come from the whole dose curve; as a rule, active = well fitted activation curve with a large enough effect; inconclusive = small, poorly fitted or top-dose-only effect; inactive = no such curve, though single readings can be large or run the other way. Potencies of inconclusive entries are left out as doubtful fits.
Assay: A quantitative high throughput screen for small molecules that induce DNA re-replication in MCF 10a normal breast cells. For activity, positive = re-replication: % of control where 0% means no effect. Note: nearly all actives have a fitted effect of over 50% in size.
Conditions: MCF 10A DNA re-replication, Hoechst nuclear intensity, 48 h; activity, positive = re-replication: at 46.1 µM (top of the series)
Potency is the fitted concentration of half-maximal effect; tags give direction and shape of the fitted curve.

Row | SMILES | Potency | activity, positive = re-replication
1 | C[C@H]1COC(=O)[C@@H](CC(=O)OC(C)(C)C)C/C=C\C[C@@H](CC(=O)N(CCO)Cc2ccccc2)C(=O)N1 | inconclusive [activator, full curve, poor fit] | –
2 | COc1ccc([N+](=O)[O-])cc1NC(=O)COC(=O)c1ccccc1C(=O)c1ccccc1 | – | inactive: 13.5%
3 | Cc1cc(C)n(-c2nc3ccccc3n3cnnc23)n1 | – | inactive: 0.653%
4 | Cc1ccc(-c2csc(N(CC3CCCO3)C(=O)c3ccco3)n2)cc1 (centres undefined) | active: 20.6 µM | –
5 | c1ccc(COc2ccc(OCCN3CCCCC3)cc2)cc1 | inconclusive [activator, partial curve, poor fit] | –
6 | CCCC(=O)N1CCN(c2ccc(NC(=O)c3ccc([N+](=O)[O-])o3)cc2)CC1 | inconclusive [activator, full curve, poor fit] | –
7 | COc1cccc(NC(=S)N/N=C2/CCCCc3ccccc32)c1 | inconclusive [activator, partial curve] | –
8 | NC(N)=Nc1ccc(C=C2C=Cc3ccccc32)cc1 | inconclusive [activator, single point] | –
9 | O=C(NCc1cccnc1)c1cccc(S(=O)(=O)Nc2ccc(F)cc2)c1 | – | inactive: 8.85%
10 | Cc1c(CCOC(=O)C23CC4CC(CC(C)(C4)C2)C3)sc[n+]1Cc1ccccc1 | inconclusive [activator, single point] | –
11 | CN(C)/C=C/c1onc(-c2ccccc2Cl)c1C#N | active: 18.4 µM | –
12 | O=S(=O)(N/N=C\c1cccn1-c1ccccc1)c1ccc2ccccc2c1 | inconclusive [activator, single point] | –
13 | COc1ccccc1C(=O)Nc1ccccc1C(=O)Nc1ccccc1 | inconclusive [activator, single point] | –
14 | C=CCNC(=O)C(=O)Nc1ccc2c(c1)N(S(=O)(=O)c1cccs1)CCC2 | inconclusive [activator, single point] | –
15 | CC(C)N=C(NS(=O)(=O)c1ccccc1)C(Cl)(Cl)Cl | active: 5.8 µM | –
16 | Cc1ccc(CS(=O)(=O)Cc2ccc(C(=O)NCc3cccs3)o2)cc1 | inconclusive [activator, single point] | –
17 | COc1cc(OC)c(C=NNC(=S)NC23CC4CC(CC(C4)C2)C3)c(OC)c1 | inconclusive [activator, full curve] | –
18 | CCOC(=O)/C(=C\c1ccc(OC)c(OC)c1)C(=O)c1cccnc1 | active: 25.9 µM | –
19 | O=c1[nH]c(CN2CCCCC2)nc2ccccc12 | inconclusive [activator, single point] | –
20 | O=C(Oc1ccccc1)c1ccccc1OS(=O)(=O)c1ccccc1 | inconclusive [activator, single point] | –
21 | Cc1ccc(NCc2nnc3n2CCCCC3)cc1 | inconclusive [activator, single point] | –
22 | CON(C)C(=O)C[C@@H]1C[C@H](OC(=O)c2ccc([N+](=O)[O-])cc2)CN1C(=O)OC(C)(C)C | – | inactive: 8.16%
23 | CCn1cc(C(=O)N(C)Cc2ccc(OC(F)F)cc2)c(=O)c2ccc(C)nc21 | – | inactive: -5.27%

Row | SMILES | Potency | activity, positive = re-replication
24 | OC(COc1ccc(Br)cc1)CN1CCC(Cc2ccccc2)CC1 (centres undefined) | inconclusive [activator, single point] | –
25 | CC1(C)COCN1S(=O)(=O)c1ccc(C(=O)Nc2nnc(-c3ccc(Cl)s3)o2)cc1 | inconclusive [activator, full curve, poor fit] | –
26 | N#Cc1nc(Cl)c(Cl)c(NN)c1Cl | – | inactive: -0.111%
27 | CCc1cc2c(N=Nc3c(O)[nH]c4ccccc34)ncnc2s1 | inconclusive [activator, partial curve, poor fit] | –
28 | Cc1ccc(NS(=O)(=O)c2ccc(C)c(NC(=S)NCCN3CCOCC3)c2)c(C)c1 | inconclusive [activator, full curve, poor fit] | –
29 | CCN1/C(=C\c2ccc3cc(C)ccc3[n+]2CC)Sc2cc(C)c(C)cc21 | inconclusive [activator, partial curve, poor fit] | –
30 | Cc1cccc(CS(=O)(=O)c2ncc(Cl)c(C(=O)NCc3ccccc3)n2)c1 | active: 13 µM | –
31 | COc1ccc(-n2cc(-c3ccc(C)cc3)[n+]3c2SCC3)cc1 | inconclusive [activator, partial curve] | –
32 | CC(C)Oc1ccc(C(=O)Nc2ccc(Cl)c(S(=O)(=O)Nc3ccc(Cl)cc3)c2)cc1 | inconclusive [activator, partial curve] | –
33 | O=c1oc2ccccc2c(Nc2ccc(Cl)cc2)c1[N+](=O)[O-] | inconclusive [activator, single point] | –
34 | COc1ccc(CCNC(=O)COC(=O)c2cc3ccccc3oc2=O)cc1OC | – | inactive: -3.23%
35 | O=C(c1cc2ccccc2o1)N1CCN(S(=O)(=O)c2ccc(F)c(F)c2F)CC1 | inconclusive [activator, partial curve, poor fit] | –
36 | COc1ccc2c(c1)[C@H]1[C@H](CO2)[C@H](c2ccccc2)[C@]2(C)C(=O)N(Cc3ccc(C)cc3)CC(=O)N12 | – | inactive: 6.3%
37 | Cc1cc(O)c(C(C)C)cc1Cl | – | inactive: 1.46%
38 | Cc1csc(=O)n1CCC(=O)N(C)Cc1c(F)cccc1Cl | – | inactive: -45.7%
39 | CC1CCC(C(C)C)C(OC(=O)Cn2c(-c3ccc(F)cc3)[n+](C)c3ccccc32)C1 (centres undefined) | inconclusive [activator, single point] | –
40 | O=C(CN1C(=O)S/C(=C/C=C/c2ccccc2)C1=O)Nc1ccc(C(=O)O)cc1 | inconclusive [activator, single point] | –
41 | COC(=O)c1c(NC(=O)c2c(Cl)cnn2C)sc(C)c1C | inconclusive [activator, single point] | –
42 | CCCCn1c(=N)n(CC(=O)C(C)(C)C)c2ccccc21 | inconclusive [activator, partial curve, poor fit] | –
43 | COc1cc(C2C3=C(COC3=O)Oc3cc4c(cc32)OCO4)cc(OC)c1OC (centres undefined) | active: 0.231 µM | –
44 | O=C(COC(=O)c1cc(S(=O)(=O)NCc2ccccc2)ccc1O)NCc1ccccc1 | inconclusive [activator, single point] | –
45 | COc1ccc(C)cc1NC(=O)C1CCN(S(=O)(=O)c2cccc3cccnc23)CC1 | inconclusive [activator, partial curve, poor fit] | –
46 | CCCn1nc(C(=O)Nc2cc(C(=O)OC)ccc2C)c2ccccc2c1=O | inconclusive [activator, partial curve, poor fit] | –

Row | SMILES | Potency | activity, positive = re-replication
47 | CCN(CC(=O)NCc1ccc(Cl)cc1)C(=O)c1cc(OC)cc(OC)c1 | – | inactive: -1.17%
48 | O=C1OC(N2C(=O)CC[C@H]2C(=O)NCC2CCCO2)c2ccccc21 (some centres undefined) | inconclusive [activator, single point] | –
49 | CC(=O)NCc1nnc2c3ccccc3c(-c3ccccc3)nn12 | – | inactive: -16.5%
50 | CC(C)(C)OC(=O)C[C@H]1C/C=C\C[C@H](CC(=O)N[C@H](CO)Cc2ccccc2)C(=O)N[C@H](C(C)(C)C)COC1=O | inconclusive [activator, full curve, poor fit] | –
51 | CC(C)(C)OC(=O)N1CCC(CNC(=O)c2cccs2)CC1 | inconclusive [activator, partial curve, poor fit] | –
52 | Cc1cc(C)c2oc(=O)cc(CN3CCN(Cc4ccccc4)CC3)c2c1 | – | inactive: 10.1%
53 | CCN(CC)CCNc1nc(-n2nc(C)cc2C)nc2sc3c(c12)CC(C)(C)OC3 | inconclusive [activator, single point] | –
54 | CCOc1ccc(C2NC(=S)NC3=C2CCc2ccccc23)cc1 (centres undefined) | inconclusive [activator, single point] | –
55 | COc1ccc(NC(=S)NCC2CCCO2)c(OC)c1 (centres undefined) | – | inactive: 0.965%
56 | CCc1ccc(C(=O)COC(=O)c2cccnc2Cl)cc1 | – | inactive: -0.133%
57 | Cc1ccc(NC(=S)N2CCN(C)CC2)c(C)c1 | – | inactive: 9.55%
58 | CC1CN(C(=O)c2cc(-c3ccc(Cl)s3)nc3ccccc23)CC(C)O1 (centres undefined) | inconclusive [activator, single point] | –
59 | c1ccc(SCCN2CCN(c3ccccc3)CC2)cc1 | inconclusive [activator, single point] | –
60 | CN(C(=O)Cn1nc(C(=O)O)c2ccccc2c1=O)C1CCCCC1 | – | inactive: -0.274%
61 | Cc1cc(C)c(NC(=O)CNC(=O)c2ccc3ncsc3c2)c(C)c1 | – | inactive: -10.2%
62 | COCCN1CC(C(=O)NCc2ncccc2C)CCC1=O (centres undefined) | – | inactive: 0.994%
63 | CCN(CC)c1ccc(S(=O)(=O)N2CCOCC2)cc1NC(=O)Cn1nc(C)c([N+](=O)[O-])c1C | – | inactive: -1.15%
64 | O=C(NCCCN1CCCC1)c1ccc(CS(=O)(=O)c2ccc(Cl)cc2)o1 | inconclusive [activator, partial curve] | –
65 | O=C(N/N=C\c1c(O)ccc2ccccc12)c1ccc(O)cc1 | – | inactive: -0.898%
66 | CN(C)C(CNc1ccc(C(F)(F)F)cc1[N+](=O)[O-])c1ccccc1 (centres undefined) | inconclusive [activator, partial curve, poor fit] | –
67 | CC(=O)N(CCOc1ccccc1)CCOc1ccccc1 | inconclusive [activator, partial curve, poor fit] | –
68 | CCOC(=O)N1CCN(C(=O)c2ccc3nc(SCc4ccc(F)cc4)n(C)c3c2)CC1 | – | inactive: 16.9%
69 | Cc1ccc2cc(CN(CCc3ccccc3)C(=S)NCCCN(C)C)c(=O)[nH]c2c1 | inconclusive [activator, single point] | –
